Data as given in US6649626B1, “N-substituted 1-(lactone) isoquinolones for treating nervous disorders” (Centre National de la Recherche Scientifique (CNRS), priority 1999, dated 2003).

System: picrotoxin-binding site of the GABA-A receptor
Experiment: Displacement of 35S-TBPS from brain membranes
Set-up: species or system rats

Structure (SMILES)	Inhibition of the tritiated ligands % TBPS (100 μM)	influence on the GABA inhibition of the TBPS bindings (100 μM, brain of rats)
O=C1C=CC(C2c3ccccc3CCN2C(=O)c2ccccc2)O1 (racemic) [Compound 60]	25%	–
COc1cc2c(cc1OC)[C@H]([C@@H]1C=C(C)C(=O)O1)N(C)CC2 (racemic) [Compound 30b]	0%	–
COc1cc2c(cc1OC)[C@H]([C@@H]1CCC(=O)O1)N(C(=O)OCc1ccccc1)CC2 (racemic) [Compound 49]	45%	–
COc1cc2c(cc1OC)[C@H]([C@@H]1CCC(=O)O1)NCC2 (racemic) [Compound 27b, (±)-Threo-6,7-dimethoxy-1-(2,3,4,5-tetrahydro-5-oxo-2-furyl)-1,2,3,4-tetrahydroisoquinoline]	negligible	–
O=C1CCC(C2c3ccccc3CCN2S(=O)(=O)c2ccc(C(F)(F)F)cc2)O1 (mixture of isomers) [Compound 70]	0%	–
O=C1CCC(C2c3ccccc3CCN2S(=O)(=O)c2ccc(OC(F)(F)F)cc2)O1 (mixture of isomers) [Compound 71]	0%	–
COc1cc2c(cc1OC)C(C1CCC(=O)O1)N(C)CC2 (racemic) [Compound 28]	9%	–
O=C1CCC(C2c3ccccc3CCN2C(=O)OCc2ccccc2)O1 (racemic) [Compound 54, (±)-(1R,2′R)-2-N-Benzyloxycarbonyl-1-(2,3,4,5-tetrahydro-5-oxo-2-furyl)-1,2,3,4-tetrahydroisoquinoline]	–	does not influence the GABA inhibition of the TBPS bindings
O=C1C=C[C@H]([C@H]2c3ccccc3CCN2C(=S)Oc2ccccc2)O1 (racemic) [Compound 63]	perhaps stimulation	–
Cc1ccc(S(=O)(=O)N2CCc3ccccc3C2[C@H]2CCC(=O)O2)cc1 (mixture of isomers) [Compound 67, (±)-(1R,2′R)-1-(2,3,4,5-Tetrahydro-5-oxo-2-furyl)-2-N-p-toluenesulfonyl-1,2,3,4-tetrahydroisoquinoline]	15%	–
CC1=C[C@@H]([C@H]2c3cc4c(cc3CCN2C)OCO4)OC1=O (racemic) [Compound 43]	50%	–
O=C1C=CC(C2c3cc4c(cc3CCN2C(=O)OCc2ccccc2)OCO4)O1 (racemic) [Compound 44]	25%	–
COc1cc2c(cc1OC)C(C1C=CC(=O)O1)NCC2 (racemic) [Compound 42]	0%	–
Cc1ccc(S(=O)(=O)N2C=Cc3ccccc3C2[C@H]2CCC(=O)O2)cc1 (mixture of isomers) [Compound 76, (±)-(1R,2′R)-2-N-Tosyl-1-(2,3,4,5-tetrahydro-5-oxo-2-furyl)-1,2-dihydroisoquinoline]	20%	–
